In all, about 310,000 compounds went through this assay and about 14,000 (4.5%) showed an effect of 50% or more. Effects have a minus sign here. This is one part of the list.
Target: human ether-à-go-go-related gene (hERG) potassium channel (human, UniProt Q12809)
Experiment: primary screen, population patch clamp on CHO cells stably expressing hERG
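Further: peak tail current of the secondary pulse compared with the same well before compound.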

Chain of human ether-à-go-go-related gene (hERG) potassium channel (Q12809 whole entry, looked up): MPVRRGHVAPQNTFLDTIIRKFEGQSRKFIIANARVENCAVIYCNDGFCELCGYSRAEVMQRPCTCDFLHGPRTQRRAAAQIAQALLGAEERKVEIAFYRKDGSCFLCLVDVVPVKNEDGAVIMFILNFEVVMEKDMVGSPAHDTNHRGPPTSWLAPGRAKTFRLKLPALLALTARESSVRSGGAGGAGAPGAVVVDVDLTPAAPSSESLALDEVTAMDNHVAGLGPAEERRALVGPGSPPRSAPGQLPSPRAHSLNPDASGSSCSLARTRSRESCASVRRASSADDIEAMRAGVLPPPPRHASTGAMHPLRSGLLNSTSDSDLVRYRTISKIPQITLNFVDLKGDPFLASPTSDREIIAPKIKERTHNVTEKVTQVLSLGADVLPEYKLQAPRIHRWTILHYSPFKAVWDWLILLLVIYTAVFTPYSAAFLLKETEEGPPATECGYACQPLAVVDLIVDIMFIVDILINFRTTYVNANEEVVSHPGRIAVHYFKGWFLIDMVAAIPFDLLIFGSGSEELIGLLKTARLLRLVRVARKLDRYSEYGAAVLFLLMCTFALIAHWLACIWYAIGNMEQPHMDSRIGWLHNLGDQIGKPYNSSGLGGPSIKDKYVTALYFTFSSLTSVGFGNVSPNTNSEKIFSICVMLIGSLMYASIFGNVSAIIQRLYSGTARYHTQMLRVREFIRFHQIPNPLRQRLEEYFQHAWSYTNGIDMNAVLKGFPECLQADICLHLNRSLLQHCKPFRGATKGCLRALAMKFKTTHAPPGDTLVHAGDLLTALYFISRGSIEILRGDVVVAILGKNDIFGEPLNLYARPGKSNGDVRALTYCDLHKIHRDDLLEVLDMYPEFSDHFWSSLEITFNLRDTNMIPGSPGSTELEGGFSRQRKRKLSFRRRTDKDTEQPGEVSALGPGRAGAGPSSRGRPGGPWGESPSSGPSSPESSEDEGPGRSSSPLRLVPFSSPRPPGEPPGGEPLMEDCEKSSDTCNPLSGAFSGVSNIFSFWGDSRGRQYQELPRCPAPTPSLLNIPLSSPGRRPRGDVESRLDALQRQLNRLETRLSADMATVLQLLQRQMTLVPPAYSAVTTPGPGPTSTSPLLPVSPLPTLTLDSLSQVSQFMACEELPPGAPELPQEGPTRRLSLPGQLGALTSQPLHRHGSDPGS

| Compound | hERG current change (%, negative = inhibition) at 10uM |
| --- | --- |
| CC(C)(C)c1ccc(OCC(=O)O)cc1 | 17.9% |
| O=Cc1cn(CC(=O)NCC2CCCO2)c2ccccc12 (stereo not drawn) | 5.1% |
| N#CCN1CCN(c2ccc(C(F)(F)F)cc2)CC1 | -6.52% |
| CCN(CC(=O)Nc1ccccc1C(F)(F)F)C(=O)c1ccc(N2CCCC2=O)cc1 | -1.02% |
| C=CCOc1ccc(CNn2cn[nH]c2=S)cc1OCC | 12.7% |
| Cc1c(NC(=O)c2ncn[nH]2)cccc1-c1nc2ccccc2s1 | 23.1% |
| COc1ccccc1/C=C/C=N/NC(=O)c1ccco1 | -0.335% |
| CCOC(=O)C/C(=N\Nc1ncnc2ccccc12)c1ccccc1 | -15% |
| CCCOC(=O)C1=C(C)NC(=O)NC1c1cc2c(cc1Br)OCO2 (stereo not drawn) | 13.9% |
| O=C(Nc1cnc2ccccn2c1=O)c1ccc(Cl)cc1 | -23% |
| COc1ccccc1N1CCN(C(=O)c2cc3c(s2)CCCCC3)CC1 | -4.94% |
| CS(=O)(=O)Cc1cc(N2CCCC2)nc(-c2ccccc2)n1 | 10.5% |
| O=C1OC(N2CCN(C/C=C/c3ccccc3)CC2)c2ccccc21 (stereo not drawn) | 9.57% |
| Cc1cc2cc(C#N)c(SCC(=O)Nc3nonc3C)nc2cc1C | -0.0959% |
| COc1ccc(C(=O)NC(=O)Nc2ncccc2C)cc1 | -10.8% |
| CCOC(=O)c1ccc(N=C2SC(C(=O)NCCc3ccccc3)CC(=O)N2C)cc1 (stereo not drawn) | 33.1% |
| COc1cc2cc(CN(CCCO)S(=O)(=O)c3ccccc3Cl)c(=O)[nH]c2cc1OC | -0.98% |
| CCOCCn1c(CN2CCN(CCO)CC2)nc2c1c(=O)n(C)c(=O)n2C | 14.3% |
| COC(=O)c1ccc(CSc2nnc(SCc3ccc(C(=O)OC)o3)s2)o1 | -10.1% |
| O=C1c2ccccc2NC(c2ccncc2)N1c1ccccn1 (stereo not drawn) | -7.92% |
| CCc1[nH]nc(C(=O)N2CCCC(CNS(=O)(=O)c3cccs3)C2)c1C (stereo not drawn) | 13.7% |
| CN(CC(=O)Nc1ccc(F)c(F)c1F)C(=O)c1ccc(-n2cncn2)c([N+](=O)[O-])c1 | -40.6% |
| NCCOc1cnn(-c2ccccc2Cl)c(=O)c1Cl | 7.19% |

| Compound | hERG current change (%, negative = inhibition) at 10uM |
| --- | --- |
| O=C(Nc1ccccc1OC(F)F)c1ccc(-n2cncn2)c([N+](=O)[O-])c1 | -4.72% |
| COc1cccc(OCCOc2ccc(/C=C3/SC(=S)NC3=O)cc2)c1 | 23% |
| COC(=O)C1CCN(S(=O)(=O)c2ccc(OC)cc2)CC1 | -2.48% |
| Oc1ccccc1/C=N/Nc1cc(N2CCCC2)nc(N2CCCC2)n1 | -4.01% |
| COC(=O)N/N=C/c1ccccc1Cl | 19.4% |
| CCCCN1C(=O)C(=O)N(CC(=O)Nc2cccc(C(C)=O)c2)C1=O | 8.76% |
| N#Cc1c(-c2ccc(F)cc2)cc(-c2cccnc2)nc1N | 0.468% |
| Cc1cc(NC(=O)c2coc(=O)c(Br)c2)ccc1C(C)C | 10.2% |
| O=c1[nH]c(C2CCN(S(=O)(=O)c3ccc(C(F)(F)F)cc3)CC2)nc2c1nnn2Cc1ccccc1 | 8.98% |
| Cc1ccccc1CN1CCN(C(=O)c2ccc(S(=O)(=O)NCc3ccco3)cc2)CC1 | -25% |
| Cc1ccc(/C=N/Nc2ncnc3nc[nH]c23)cc1 | -18.6% |
| CC(C(=O)NC1CCCC1)N1C(=O)c2cccc3cccc1c23 (stereo not drawn) | 11.3% |
| CCOC(=O)c1c(C)[nH]c(C)c1S(=O)(=O)N(C)CC(=O)Nc1cccc(C)c1 | -3.84% |
| COc1ccc(-c2nn(CCC(=O)O)cc2/C=C2\SC(N)=NC2=O)cc1 | -3.79% |
| CC(C)N(Cc1ccccc1)C(=S)Nc1ccccc1F | 8.65% |
| CCSc1ncc(Cl)c(C(=O)Nc2ccccc2Cl)n1 | 13.5% |
| O=C(Nc1ccc(C(=O)N2CCCCC2)cc1)c1cccs1 | 10.6% |
| COc1ccc(NC(=O)C(C)N2C(=O)c3ccccc3C2=O)c(OC)c1 (stereo not drawn) | 4.58% |
| O=C(Nc1ccnn1C1CCN(Cc2c[nH]c3ccccc23)CC1)c1ccccc1 | -44.7% |
| Cc1cccc(C(=O)O/N=C(\N)c2ccc(Cl)cc2)c1 | -15.9% |
| COc1ccc(NC(=S)NC(NC(=O)/C=C/c2ccccc2)C(Cl)(Cl)Cl)cc1 (stereo not drawn) | 7.49% |
| O=C(C1=NN(c2ccccc2)C2C(=O)N(c3cccc(Cl)c3)C(=O)C12)c1ccccc1 (stereo not drawn) | 1.55% |
